By IC50 is meant the dose at which the fit gives 50% viability; a fit beyond the top or the lowest dose is shown as a bound at that dose. AUC is the area under the same curve over the 256-fold range up to the top dose, as a fraction; values near 1 show little effect. A top dose marked as inferred was calculated from the reported fits. Where an entry number is given, a second screen of the drug exists; the two often differ.
Compound: NC(=O)[C@@H](CCC(F)(F)F)N(Cc1ccc(-c2ncon2)cc1F)S(=O)(=O)c1ccc(Cl)cc1 [BMS-708163]
Assay: Viability of human cancer cell lines after 72 h of drug (GDSC screen)
Settings: screen: GDSC drug entry 205; top dose inferred
Method: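 Human cancer cell lines in 384-well plates, medium with 10% serum, drug for 72 h over a 256-fold dose range (nine 2-fold or five 4-fold steps up to the top dose). Adherent lines were fixed and stained with the nucleic acid dye Syto60, suspension lines read with resazurin; signal relative to control wells, capped at 0 and 100%. One two-parameter sigmoid per drug and line, fitted in a mixed model over all curves with the slope shared within a line.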

Row | Cell Line | AUC | IC50 [µM]
1 | SISO (cervix, adherent, top dose 10.24 µM) | 0.988 | > 10.2
2 | ACHN (kidney, adherent, top dose 10.24 µM) | 0.983 | > 10.2
3 | NB(TU)1-10 (neuroblastoma, adherent, top dose 10.24 µM) | 0.993 | > 10.2
4 | NCI-H460 (large cell lung carcinoma, adherent, top dose 10.24 µM) | 0.99 | > 10.2
5 | NCI-H1734 (lung adenocarcinoma, adherent, top dose 2.56 µM) | 0.979 | > 2.56
6 | MFE-296 (endometrium, adherent, top dose 10.24 µM) | 0.983 | > 10.2
7 | U-87-MG (glioma, adherent, top dose 10.24 µM) | 0.982 | > 10.2
8 | Daudi (Burkitt lymphoma, suspension, top dose 10.24 µM) | 0.99 | > 10.2
9 | SU-DHL-6 (B-cell lymphoma, suspension, top dose 10.24 µM) | 0.973 | > 10.2
10 | NCI-H2291 (lung adenocarcinoma, adherent, top dose 10.24 µM) | 0.981 | > 10.2
11 | RT-112 (bladder, adherent, top dose 10.24 µM) | 0.985 | > 10.2
12 | WSU-NHL (lymphoid neoplasm, suspension, top dose 10.24 µM) | 0.99 | > 10.2
13 | ME-1 (acute myeloid leukaemia, suspension, top dose 10.24 µM) | 0.966 | > 10.2
14 | COR-L311 (small cell lung carcinoma, suspension, top dose 10.24 µM) | 0.978 | > 10.2
15 | EVSA-T (breast, adherent, top dose 10.24 µM) | 0.991 | > 10.2
16 | OACp4C (oesophagus, adherent, top dose 10.24 µM) | 0.98 | > 10.2
17 | IM-95 (stomach, adherent, top dose 10.24 µM) | 0.965 | > 10.2
18 | GMS-10 (glioma, adherent, top dose 10.24 µM) | 0.988 | > 10.2
19 | T84 (large intestine, adherent, top dose 10.24 µM) | 0.977 | > 10.2
20 | MY-M12 (leukaemia, suspension, top dose 10.24 µM) | 0.965 | > 10.2
21 | NCI-H209 (small cell lung carcinoma, suspension, top dose 10.24 µM) | 0.975 | > 10.2
22 | KNS-81-FD (glioma, adherent, top dose 10.24 µM) | 0.965 | > 10.2
23 | CHSA0108 (chondrosarcoma, adherent, top dose 10.24 µM) | 0.975 | > 10.2
24 | SF295 (glioma, adherent, top dose 10.24 µM) | 0.985 | > 10.2

Row | Cell Line | AUC | IC50 [µM]
25 | SNU-C5 (large intestine, adherent, top dose 10.24 µM) | 0.985 | > 10.2
26 | MS-1 (small cell lung carcinoma, suspension, top dose 10.24 µM) | 0.976 | > 10.2
27 | MDST8 (large intestine, adherent, top dose 10.24 µM) | 0.985 | > 10.2
28 | HAL-01 (lymphoblastic leukaemia, suspension, top dose 10.24 µM) | 0.989 | > 10.2
29 | HSC-3 (head and neck, adherent, top dose 10.24 µM) | 0.99 | > 10.2
30 | HA7-RCC (kidney, adherent, top dose 10.24 µM) | 0.984 | > 10.2
31 | SNU-398 (liver, adherent, top dose 10.24 µM) | 0.985 | > 10.2
32 | SK-CO-1 (large intestine, adherent, top dose 10.24 µM) | 0.985 | > 10.2
33 | SW1271 (small cell lung carcinoma, adherent, top dose 10.24 µM) | 0.983 | > 10.2
34 | KURAMOCHI (ovary, adherent, top dose 10.24 µM) | 0.966 | > 10.2
35 | C-33-A (cervix, adherent, top dose 10.24 µM) | 0.984 | > 10.2
36 | SNU-61 (large intestine, adherent, top dose 10.24 µM) | 0.977 | > 10.2
37 | MDA-MB-175-VII (breast, adherent, top dose 10.24 µM) | 0.987 | > 10.2
38 | RERF-LC-Sq1 (lung squamous cell carcinoma, adherent, top dose 10.24 µM) | 0.979 | > 10.2
39 | TE-10 (oesophagus, adherent, top dose 10.24 µM) | 0.982 | > 10.2
40 | JiyoyeP-2003 (Burkitt lymphoma, suspension, top dose 10.24 µM) | 0.991 | > 10.2
41 | MFH-ino (soft tissue, adherent, top dose 10.24 µM) | 0.983 | > 10.2
42 | LP-1 (myeloma, suspension, top dose 10.24 µM) | 0.941 | > 10.2
43 | CL-11 (large intestine, adherent, top dose 10.24 µM) | 0.987 | > 10.2
44 | KLE (endometrium, adherent, top dose 10.24 µM) | 0.978 | > 10.2
45 | KYSE-50 (oesophagus, adherent, top dose 10.24 µM) | 0.967 | > 10.2
46 | BPH-1 (prostate, adherent, top dose 10.24 µM) | 0.971 | > 10.2
47 | BV-173 (chronic myeloid leukaemia, suspension, top dose 10.24 µM) | 0.989 | > 10.2
48 | SIMA (neuroblastoma, adherent, top dose 10.24 µM) | 0.984 | > 10.2

Row | Cell Line | AUC | IC50 [µM]
49 | NCI-H1694 (small cell lung carcinoma, suspension, top dose 10.24 µM) | 0.989 | > 10.2
50 | KP-4 (pancreas, adherent, top dose 10.24 µM) | 0.985 | > 10.2
51 | HCC38 (breast, adherent, top dose 10.24 µM) | 0.977 | > 10.2
52 | DMS-273 (small cell lung carcinoma, adherent, top dose 10.24 µM) | 0.977 | > 10.2
53 | T47D (breast, adherent, top dose 10.24 µM) | 0.97 | > 10.2
54 | UACC-257 (melanoma, adherent, top dose 10.24 µM) | 0.979 | > 10.2
55 | UMC-11 (lung carcinoid, adherent, top dose 10.24 µM) | 0.991 | > 10.2
56 | GCIY (stomach, adherent, top dose 10.24 µM) | 0.973 | > 10.2
57 | ESO51 (oesophagus, semi-adherent, top dose 10.24 µM) | 0.979 | > 10.2
58 | EGI-1 (biliary tract, adherent, top dose 10.24 µM) | 0.982 | > 10.2
59 | CPC-N (small cell lung carcinoma, suspension, top dose 10.24 µM) | 0.984 | > 10.2
60 | NCI-H1993 (lung adenocarcinoma, adherent, top dose 10.24 µM) | 0.975 | > 10.2
61 | SU-DHL-16 (B-cell lymphoma, suspension, top dose 10.24 µM) | 0.972 | > 10.2
62 | KMS-12-BM (myeloma, suspension, top dose 10.24 µM) | 0.991 | > 10.2
63 | SW1463 (large intestine, adherent, top dose 10.24 µM) | 0.968 | > 10.2
64 | HCC-44 (lung adenocarcinoma, adherent, top dose 10.24 µM) | 0.981 | > 10.2
65 | HCC1954 (breast, adherent, top dose 10.24 µM) | 0.982 | > 10.2
66 | MFE-280 (endometrium, adherent, top dose 10.24 µM) | 0.97 | > 10.2
67 | SNU-475 (liver, adherent, top dose 10.24 µM) | 0.991 | > 10.2
68 | HO-1-N-1 (head and neck, adherent, top dose 10.24 µM) | 0.988 | > 10.2
69 | U031 (kidney, adherent, top dose 10.24 µM) | 0.976 | > 10.2
70 | LS-411N (large intestine, adherent, top dose 2.56 µM) | 0.981 | > 2.56

Same assay, conditions: top dose 5 µM; screen: GDSC drug entry 1072; top dose inferred

Row | Cell Line | AUC | IC50 [µM]
71 | NCI-H2066 (small cell lung carcinoma, adherent) | 0.973 | > 5
72 | SK-MEL-5 (melanoma, adherent) | 0.978 | > 5
73 | CRO-AP2 (B-cell lymphoma, suspension) | 0.987 | > 5
74 | JEKO-1 (B-cell lymphoma, suspension) | 0.968 | > 5
75 | RCC-JW (kidney, adherent) | 0.985 | > 5
76 | SK-GT-4 (oesophagus, adherent) | 0.675 | 1.09
77 | TE-4 (oesophagus, adherent) | 0.987 | > 5
78 | MEL-HO (melanoma, adherent) | 0.924 | > 5

Source: the supplement of paper PMC4967469
